Data from PubChem BioAssay (NCI).
Values joined by “and” are separate entries in the source; they are usually repeats but may differ in a detail not shown here. Equal values may be shown once.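 Following 48 hours of exposure in 96-well plates, responses at five concentrations were used to interpolate endpoints linearly. Here, GI50 denotes the concentration required for 50% inhibition of growth. Definition used: TGI = concentration required for complete inhibition of growth.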 Square brackets hold non-standard residues; d marks the D form. Peptide text beside a SMILES is read from it. * marks the point of attachment. Phe(4-NO2) = N[CH](Cc1ccc([N+](=O)[O-])cc1)C(=O)O; Cbz = O=C(OCc1ccccc1)*

Test system: NCI-H322M lung
Assay: NCI-60 cell line screen, 48 h

Row | SMILES | TGI | GI50
1 | COc1cccc(C(=O)Nc2c3ccccc3nc3ccccc23)c1OC | > 100 µM | –
2 | [O-]c1c[n+](CCCC[n+]2cc([O-])on2)no1 | > 100 µM | –
3 | CCSC(SCC)c1cc2c(cc1Br)OCO2 | 72.7 µM | –
4 | C[C@H](N)C(=O)N[C@@H]1[C@H]2C(=C(O)C[C@@H](O)[C@@H]2O)C(=O)O[C@]1(C)C(Cl)Cl | 2.46 µM and 1.68 µM | 0.261 µM
5 | C[N+](C)(C)CC(=O)N/N=C(\CCC(=O)NCCc1ccccc1)CC(=O)c1ccccc1 | > 100 µM | –
6 | N.N.N.N.O=NN1CCCCCC1(P(=O)([O-])[O-])P(=O)([O-])[O-].[Pt+4].[Pt+4] | > 100 µM | > 100 µM
7 | Cc1cc(=O)oc2cc(SC(=O)N(C)C)ccc12 | > 100 µM | –
8 | O=C(Cc1nc2ccccc2s1)Nc1ccc(Cl)cc1 | > 100 µM | –
9 | COc1cc(-c2nc(NC(C)=O)sc2-c2ccnc(NCCNS(=O)(=O)c3ccccc3)n2)ccc1Cl | > 100 µM | 6.57 µM
10 | O=C1/C(=C\c2ccc(F)cc2)CN(C(=O)c2ccc([N+](=O)[O-])cc2)C/C1=C\c1ccc(F)cc1 | 98.9 µM | 38.5 µM
11 | c1ccc(CSc2ccccc2CN2CCN(Cc3ccccc3SCc3ccccc3)CCN(Cc3ccccc3SCc3ccccc3)CC2)cc1 | 4.72 µM | –
12 | C=CCc1c(C)nc(C)nc1N/N=C/C=C/c1ccccc1 | > 100 µM | –
13 | CC1CN(c2ccc(Cl)cc2)CC(C)(C)OC(=O)O1 (stereo not drawn) | > 100 µM | –
14 | Cc1ccc(-n2c3nc(=O)n(C)c(=O)c-3nc3ccccc32)cc1 | 67 µM | –
15 | Cc1ccc2c(c1)C(C)Cc1c(ncnc1-n1cnc3cc(C)ccc31)N2C (stereo not drawn) | 18.4 µM | 0.0525 µM
16 | C=C1[C@H](OC(=O)C(C)C)[C@@H](OC(C)=O)[C@@H](OC(C)=O)C(C)(C)[C@@H]2O[C@H]2[C@@H](C)C(=O)[C@@]2(OC(C)=O)C[C@@](C)(OC(C)=O)[C@H](OC(C)=O)[C@@H]2[C@H]1OC(C)=O | > 100 µM | –
17 | O=Nc1c(-c2c(O)[nH]c3ccccc23)[nH]c2ccccc12 | 15.3 µM | –
18 | CS/C(C#N)=C(\C#N)SC | > 100 µM | –
19 | CC(C)(C)OC(=O)[C@@H]1CCC(=S)N1Cc1ccccc1 | > 100 µM | –
20 | O=C(/C=C/c1ccc(O)c(O)c1)OC1C[C@@](O)(C(=O)O)C[C@@H](O)[C@H]1OC(=O)/C=C/c1ccc(O)c(O)c1 (stereo partly drawn) | > 100 µM | –
21 | CC1=C(C(=O)Nc2ccccc2C)C(c2ccc(C3C(C(=O)Nc4ccccc4C)=C(C)NC(C)=C3C(=O)Nc3ccccc3C)cc2)C(C(=O)Nc2ccccc2C)=C(C)N1 | 23.4 µM | –
22 | CN1CCC(CNc2ccc3ncc(-c4cccc(OC(F)(F)F)c4)n3n2)CC1 | 13.2 µM and > 10 µM | 3.07 µM and 3.41 µM
23 | O=C(Nc1cc2c(=O)[nH]c3ccccc3c2oc1=O)c1cnccn1 | > 100 µM | –
24 | CCOC(=O)CC(=O)C(=O)NNC1=NCCN1 | > 100 µM | –
25 | O=c1c(-c2ccccc2)c2oc(c1-c1ccccc1)CS(=O)(=O)CCC2 | > 100 µM | –

Row | SMILES | TGI | GI50
26 | O=C(CSc1nc2ccccc2nc1-c1ccccc1)Nc1ccc(Cl)cc1 | > 100 µM | > 100 µM
27 | Cc1ccc(S(=O)(=O)N2c3ccccc3[C@H]3CCc4c([nH]c5ccccc45)[C@H]32)cc1 | > 100 µM | –
28 | COc1ccc2c(c1)CCN=C2Cc1ccccc1CCCl | > 100 µM | –
29 | COc1ccccc1-c1cc(/C=C2\C(=O)Nc3ncc(Br)cc32)cc(Br)c1O | > 25 µM | 18.7 µM
30 | O=C1C=CC(=O)c2c1cc([N+](=O)[O-])c1ccoc21 | 39.3 µM | –
31 | Cc1[nH]n(C2=NCCN2)c(=O)c1C | > 100 µM | –
32 | Cc1cc(N)ccc1N=Nc1ccc(S(=O)(=O)CCOS(=O)(=O)O)cc1 | 31.2 µM | –
33 | CC(C)/C(Cl)=N/OC(=O)Nc1cccc(C(F)(F)F)c1 | 18.1 µM | –
34 | NC(=NCCCC1(c2ccccc2)CCCC1)Nc1ccc(Cl)cc1 | 3.42 µM | 1.76 µM
35 | CC1=[N+]([O-])C(C)(C)N(N=O)C1(C)C | > 10 µM | –
36 | CN(C)c1ncnc2c1Cc1ccccc1C(=O)N2C | > 100 µM | –
37 | O=C(Nc1ccc(Cl)cc1)NS(=O)(=O)c1coc2ccccc2c1=O | > 10 µM | –
38 | NC(=O)/C(=C\c1ccncc1)c1cccc2ccccc12 | > 100 µM | –
39 | O=C(Cc1ccccc1)N[C@@H]1COC(=O)[C@@H]2CCCN2C(=O)[C@@H]2CCCN2C1=O (HELM PEPTIDE1{[O=C(Cc1ccccc1)[*:2]].[O=C([C@@H](CO[*:3])N[*:1])[*:2]].P.P}$PEPTIDE1,PEPTIDE1,2:R3-4:R2$$$V2.0) | > 100 µM | –
40 | NCCCCCCCCn1c2c(c3ccccc3c1=O)C(=O)c1ccccc1-2 | 5.72 µM | 2.53 µM
41 | C=C[C@]1(O)CCC[C@]2(C)C(=O)CCC12C (stereo partly drawn) | > 100 µM | –
42 | C#Cc1c(C)c(/C=C/C(C)=C/C=C/C(C)=C/C(=O)OC)n(C)c1C | > 100 µM | –
43 | COc1cc(OC)c2ssc3c(OC)cc(OC)c4ssc1c2-c43 | > 100 µM | –
44 | COc1cc(C2SCC(=O)N2Cc2ccccc2)cc(OC)c1OC (stereo not drawn) | > 100 µM | –
45 | CC1=C(C)CC(C#N)(C#N)C(C#N)(C#N)C1 | > 10 µM | –
46 | CCCCC(C(=O)N/N=C/c1ccc([N+](=O)[O-])o1)C(=O)N/N=C/c1ccc([N+](=O)[O-])o1 | 28.3 µM | –
47 | Cc1cccc(NC(=S)Nc2ccc([N+](=O)[O-])cc2)n1 | > 100 µM | –
48 | CCN1C(=O)N(CC)C2C1NN=c1s/c(=C\c3ccccc3F)c(=O)n12 (stereo not drawn) | > 100 µM | 0.0781 µM
49 | C/C(=C/c1ccccc1)CN(C(=O)/C=C\Sc1ccccc1)C(C)(C)C | > 100 µM | –
50 | O=C1/C=C/[C@@H](O)[C@@H]2C[C@@H](O)C[C@H]2/C=C/CCC[C@H](CCc2ccc(C(F)(F)F)cc2)O1 | 20 µM | 0.156 µM

Row | SMILES | TGI | GI50
51 | CC(C)CCSC1=CC(=O)c2ccccc2C1=O | > 59.4 µM | 11.7 µM
52 | Nc1nc(Cl)cc(NCCCCCNc2cc(Cl)nc(N)n2)n1 | 91.7 µM | –
53 | O=c1[nH]cc(/C=N\Nc2ccccc2)c(=O)[nH]1 | > 100 µM | –
54 | O=C(CSc1nnc(Cc2ccccc2)o1)Nc1cccc(Cl)c1 | > 100 µM | –
55 | CC1=CC=C2c3ccccc3C=CN2C(=O)C1 | > 100 µM | –
56 | N#CC(/C(=N\NC(=O)c1ccncc1)C(=O)Nc1ccc([N+](=O)[O-])cc1[N+](=O)[O-])c1nc(-c2ccc(Br)cc2)cs1 (stereo not drawn) | > 100 µM | –
57 | O=C(c1ccc(OCCN2CCCCC2)cc1)c1c(-c2ccc(O)cc2)sc2cc(O)ccc12 | 26.1 µM and 30.6 µM | 13 µM and 15.8 µM
58 | CCN1C(=S)n2cccc2C1CC(=O)c1ccc(Cl)cc1 (stereo not drawn) | > 100 µM | –
59 | CC(C)N(C(=O)C1(C)CC1)C(C)C | > 100 µM | –
60 | Cc1nc2ccccn2c1NC(=O)NNC(=S)Nc1ccc(Br)cc1 | > 100 µM | 99.8 µM
61 | COc1ccccc1/C=C/C(=O)c1c(O)cc2occc2c1OC | > 100 µM | > 100 µM
62 | Cc1ccc2[nH]c3c(C)c4c(c(C)c3c2c1)CN(C)C=C4 | 11.7 µM | –
63 | Sc1ccc2ccccc2c1CNCc1ccccc1 | > 100 µM | –
64 | O=C(N/N=C/c1ccccc1O)C(O)(c1ccccc1)c1ccccc1 | > 100 µM | 3.11 µM
65 | CC1(C)Oc2ccc3c(=O)c(-c4ccccc4)c(-c4ccccc4)oc3c2C1C(=O)O (stereo not drawn) | > 100 µM | –
66 | CC(N)C(=O)OCN1C(=O)C2C3C=CC(C2C1=O)C1C2C(=O)N(COC(=O)C(C)N)C(=O)C2C31 (stereo not drawn) | > 100 µM | –
67 | COc1ccc2c(c1O)C(=O)C(CCC(=O)O)CC2 (stereo not drawn) | > 100 µM | –
68 | O=C1OC2C(O)COC2(O)C1(O)C(C[N+](=O)[O-])c1ccc(Cl)cc1 (stereo not drawn) | 32.2 µM | –
69 | COC(=O)C(=O)C(C(=O)C1=NS(=O)(=O)c2cc(S(N)(=O)=O)c(Cl)cc2N1)c1nc2ccc(C(=O)c3ccccc3)cc2[nH]c1=O (stereo not drawn) | > 100 µM | –
70 | O=C(NO)c1ccc(OCc2cccc(Cl)c2)cc1 | 36.3 µM | –
71 | CNC1C(O)C(OC2C(N)CC(N)C(OC3OC(CN)=CCC3N)C2O)OCC1(C)O (stereo not drawn) | > 100 µM | –
72 | C[C@@H](N)C1CCC(C(=O)Nc2ccncc2)CC1 (stereo partly drawn) | > 100 µM | > 82.1 µM
73 | CCN(CC)CC.CCOc1ccc(NC(=O)N=C=[N-])cc1.[CH-]1CCCCC1.[CH-]1CCCCC1.[CH-]1CCCCC1.[Cl-].[Sn+4] | 0.16 µM | 0.0492 µM
74 | CCCCOCn1c(=O)[nH]c(=O)c2ccccc21 | > 100 µM | –
75 | O=Nc1ccc(O)c2ccccc12 | 26.7 µM | 12.3 µM

Row | SMILES | TGI | GI50
76 | COc1c(C)c2c(c3c1c(=O)c1ccccc1n3C)C=CC(C)(C)O2 | 90.6 µM | –
77 | COc1cc(Br)c(CC2(C#N)c3ccccc3C3C(N2C(=O)c2ccccc2)C3(Cl)Cl)cc1OC (stereo not drawn) | > 65.5 µM | –
78 | C1CCC(OCc2nnn3c2CCC3)OC1 (stereo not drawn) | > 100 µM | –
79 | C=CCOc1ccc(/C(N=Nc2ccc(C)cc2)=N/NC(=O)c2ccccc2)cc1OC | > 100 µM | –
80 | O=Cc1ccc(-c2ccc(-c3nc4ccccc4[nH]3)cc2)s1 | 57.7 µM | 20.1 µM
81 | CC1=C(C#N)C23C(=O)c4ccccc4C(O)=C2C(=O)C=CC3(O)N1 (stereo not drawn) | 43.4 µM | –
82 | CCCCCCCCCCCCNC(=O)[C@H]1CSC(c2cc3ccccc3s2)N1 (stereo partly drawn) | 8.6 µM | 4.36 µM
83 | CCOC(=O)CCC(NC(=O)OCc1ccccc1)C(=O)NC(CCC(=O)OCC)C(=O)NC(Cc1ccc([N+](=O)[O-])cc1)C(=O)NC(CCC(=O)OCC)C(=O)NC(CCC(=O)OCC)C(=O)OCC (stereo not drawn) (Cbz-E(OEt)E(OEt)[Phe(4-NO2)]E(OEt)E(OEt)-OEt; configuration not given here) | > 100 µM | –
84 | Cc1ccc2c3c(cnc2n1)C(=O)OCCN3C | > 100 µM | –
85 | O=C1Oc2ccccc2C(=O)/C1=C/N1C(=O)/C(=C/c2ccc3c(c2)OCO3)SC1=S | > 55.4 µM | –
86 | O=C(/C=C/c1ccc(O)c(O)c1)OCc1ccccc1 | 67.4 µM | –
87 | Cc1c(-c2ccccc2)c(=O)oc2ccc(Cl)cc12 | > 100 µM | –
88 | Cn1cc(-c2csc(-c3cn(C)c4ccc(Br)cc34)n2)c2cnccc21 | 3.18 µM | 1.77 µM
89 | CC1=CC(=O)CC(C)(C)C1(O)/C=C/C(C)=C/C(=O)O (stereo not drawn) | > 100 µM | –
90 | CCN(CC)CCCC(C)Nc1cc(-c2ccc(C(F)(F)F)cc2)c(C#N)c2nc3ccccc3n12 (stereo not drawn) | 10.6 µM | 3.08 µM
91 | CCN(CC)C(=S)SNc1ccc(S(N)(=O)=O)cc1 | > 100 µM | –
92 | CO[C@H]1ON=C(c2c(C)cc(C)cc2C)[C@@H]1C1(c2ccccc2)ON=C(c2c(C)cc(C)cc2C)O1 (stereo partly drawn) | > 100 µM | –
93 | C=CCCCn1ccc2ccccc21 | > 100 µM | –
94 | Cc1nc2c(O)cc3c4c(=O)n(C)c(=O)n(C)c4n(Cc4ccccc4)c3c2nc1C | 87.5 µM | –
95 | C=CC(=O)N1C/C(=C\c2ccccc2)C(=O)/C(=C/c2ccccc2)C1 | 10.7 µM | –
96 | CC1C(=NO)C(C)C(c2ccccc2)N(N=O)C1c1ccccc1 (stereo not drawn) | 36.1 µM | –
97 | COC(=O)C(Cc1cnc[nH]1)NC(=O)CNC(=O)CCCn1c(=O)c2c3ccccc3n(C)c2n2nnc(-c3ccccc3)c12 (stereo not drawn) | > 100 µM | > 100 µM
98 | CN(C)CC1CCCC(CN2CCCCC2)C1=O (stereo not drawn) | > 100 µM | –
